Measured values published in the supplement of paper PMC3334620.
Over roughly 33,000 sequences, “E-score (-0.5 to 0.5)” has its median near -0.016; the highest 2% begin near 0.31. This is one part of the list.

What follows are sequences tested against Cst6 (UniProt P40535) (assay: PBM E-score (8-mer binding enrichment) (E-score (-0.5 to 0.5)); higher = stronger / more preferred TF binding; most listed sequences are background and not binding sites). Conditions: protein concentration: 200 nM; construct: GST-DNA-binding domain.
Procedure: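 Universal 'all 10-mer' protein binding microarrays (Agilent AMADID 015681) probed with GST-tagged S. cerevisiae TFs (full-length or DBD) made by in vitro transcription/translation (PURExpress), about 100-200 nM. Bound TF was detected with fluorescent anti-GST. Each ungapped 8-mer (which stands for itself and its reverse complement) is scored by the PBM enrichment score (E-score), a modified Wilcoxon-Mann-Whitney statistic from -0.5 to +0.5, computed with the Universal PBM Analysis Suite. Scale: above 0.35 generally sequence-specific binding.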

In order of rising “PBM E-score” value:
1. CCCCCTCA  -0.373
2. AGTGGGGA  -0.326
3. ACCGGGAT  -0.306
4. TCCTACGA  -0.304
5. AGTCCAGC  -0.279
6. GAGCGCAA  -0.272
7. AAGCTCTC  -0.254
8. ACCCAGGA  -0.249
9. CGCTCCGC  -0.233
10. CCGCGAGA  -0.218
11. TAAGTCTA  -0.216
12. GGCCGCCC  -0.203
13. AGTCCCAA  -0.202
14. ACCTAGGC  -0.198
15. GGTTAACC  -0.191
16. GTGTAGGA  -0.188
17. CCCACATA  -0.18
18. CAGCACGA  -0.173
19. AGCAGAAG  -0.17
20. CCCAGAAC  -0.167
21. CATCAGTC  -0.163
22. GCCGCTAC  -0.161
23. ACTCTGCT  -0.156
24. AGCGCGAC  -0.152
25. ACCCTACG  -0.147
26. CGATTCCA  -0.14
27. GCACATCC  -0.13
28. CCTTTTAG  -0.128
29. ATGCGAGC  -0.123
30. CACAAGTG  -0.12
31. CCAGCACA  -0.119
32. AGTCTTAA  -0.116
33. AATCCTAC  -0.113
34. ACAGGCGC  -0.11
35. CACGCGAA  -0.105
36. CCGAATAG  -0.103
37. CCACACTC  -0.0967
38. CGAGTCAC  -0.0823
39. TAGGCTAA  -0.0771
40. ATGTCTCA  -0.0728
41. ACGCTATA  -0.0686
42. ACACTTTC  -0.0648
43. CCCGTATA  -0.0644
44. GCGGGTTA  -0.0629
45. AACCTTTG  -0.0624
46. ACGCAGTG  -0.0619
47. ACCCCAAC  -0.0575
48. CGTTCCGA  -0.0551
49. ACCGCTCG  -0.0484
50. ACTGTGTA  -0.043
51. AGTATGTG  -0.0413
52. GAAGGATA  -0.0411
53. GCTGTGTA  -0.04
54. AATCTGCA  -0.0358
55. AACATTCC  -0.0303
56. CGTACCCC  -0.0299
57. AGGCTGTA  -0.0214
58. TTCCCGAA  -0.0136
59. GCACGTAC  -0.00487
60. CGTTTGAC  -0.00439
61. AAGCTGTG  -0.00267
62. CATAGGGA  -0.00022
63. AGGTTACC  0.00222
64. ATTCGGCA  0.00283
65. GCACTGAA  0.00783
66. GGGATTTA  0.00892
67. CTCTAAGC  0.0116
68. ATTTCTAA  0.0348
69. CGAGGTTC  0.0365
70. GTAGTGAA  0.0467
71. ATTGGGTC  0.0483
72. CACTATCA  0.0489
73. CATCAAGC  0.0578
74. AGTTACTC  0.0596
75. TCTTTGAA  0.0646
76. GTTGAGTA  0.073
77. ATGAAACC  0.0795
78. ATGAGCTA  0.0815
79. ACAAAGAC  0.0933
80. ATCCTTTA  0.0936
81. ATCAGCTC  0.0985
82. ATGATCGG  0.1
83. CTAGCTAA  0.118
84. ACCATCAT  0.121
85. CAGTTCAA  0.125
86. TCGTATCA  0.127
87. ACAAAGAT  0.135
88. CGGAGTTC  0.138
89. AGTCATAC  0.144
90. AACCAAAA  0.153
91. ATTTCTAG  0.168
92. AGATTGAC  0.17
93. GTTAAATA  0.17
94. ATATTTTG  0.173
95. CCATAACA  0.176
96. AAATTGAC  0.184
97. GTGTATGA  0.186
98. GAACAAAA  0.186
99. AGAGGTAT  0.187
100. ACGGTTAA  0.194
101. ATTTATGA  0.195
102. ACGTGGAT  0.197
103. ATACAAAA  0.214
104. AATTGTGA  0.255
105. CACGTAAC  0.262
106. AAATTATC  0.308
107. ATATATAA  0.324
108. AAGCGTCA  0.336
109. GAACGGCA  0.352
110. GACGTAAC  0.46
